According to PMC7589491, “Biomimetic Artificial Membrane Permeability Assay over Franz Cell Apparatus Using BCS Model Drugs” (Pharmaceutics, 2020):

What was measured:
[1] = cited from earlier work
[2] = Franz–PAMPA permeation study (lipid-impregnated artificial membrane on Franz cells)
[3] = pH 7.4; cited from earlier work
Caco-2 cells = details: cited from earlier work
[4] = pH 7.4, Papp Franz–PAMPA, PBS pH 7.4, 37 °C, 500 rpm, 12 h, n = 3, best fit of linear portion (sink equation)
[5] = pH 7.4, Papp Non-Sink Arthurson, Franz–PAMPA data, non-sink equation

CC(C)NCC(O)COc1ccc(CC(N)=O)cc1 (stereo not shown) [Atenolol]
Papp Corti [1]: 20.9 ×10⁻⁶ cm/s | Papp at 12 h, 10 mg/mL [2, 4]: 25.8 ×10⁻⁶ cm/s | Papp at 12 h, 10 mg/mL [2, 5]: 22 ×10⁻⁶ cm/s

NS(=O)(=O)c1cc(C(=O)O)c(NCc2ccco2)cc1Cl [Furosemide]
Papp PAMPA pH 7,4 [3]: 0.6 × 10^−6 cm/s | Papp Corti [1]: 27.5 ×10⁻⁶ cm/s | Papp Caco-2 (Caco-2 cells): 0.1 ×10⁻⁶ cm/s

COc1ccc2cc([C@H](C)C(=O)O)ccc2c1 [Naproxen]
Papp PAMPA pH 7,4 [3]: 10.6 × 10^−6 cm/s | Papp at 12 h, 10 mg/mL [2, 4]: 2.89 ×10⁻⁶ cm/s | Papp at 12 h, 10 mg/mL [2, 5]: 1.7 ×10⁻⁶ cm/s | Papp Caco-2 (Caco-2 cells): 39.5 ×10⁻⁶ cm/s
